The results in this text go back to the RNAGym collection of RNA variant scans (doi:10.7554/elife.90254).

B1: LINE1-mini (parent)
chain: GGCAGAGCUCAACACAGCGUGGCAAAGUGGCUGUGGCUAGACUGCC

The source gives no read counts; variants with many changes may rest on few reads.

The variants in the series derive from B1. Briefly: self-cleavage, relative activity (ratio to wild type); higher = more cleavage; in vitro, sequencing; the parent is a self-cleaving ribozyme.
Take AGGAGAGCUCAACAAAGCUUGGCAAAGUGGCUGUGGCUAAACUGCC: the self-cleavage stood at 0.15.
The same measure for AGCAGAGAUCAACACAGCGUCGCAAAGUGGGUGUGGCUAGACUGCC: 0.17.
As to AGCAGAGCUCACCAUAGCGUGGCAAAGUGGCAGUGGCUAGACUGCC, the self-cleavage turned out to be 0.03.
Turning to AGAAGAGCUCCACACAGCGUGGCAAAGGGGCUGUGGCUAGACUGCC, the self-cleavage is 0.09.
The value for AGCAGAGCUAAACACAGCGUGUCAAAGUGGCUGGGGCGAGACUGCC was 0.07; that for AGCAGAGCUCAACGCAGCGUGUCAAAGUGGCUGUGGCUAGACUGCC was 0.74.
The value for AGCAGAGCUCAACACAGCGUGGCAACGUUGCUGUGGCUAGACUGCC was 0.2; that for AGCAGUACUCAACACACCGUGGCAAAGUGGCUGUGGCUAGACUGCC was 0.31.
With AGCCGAGCUCAUCACAGCGUGGCAAAGUGGCUGUUGCUAGACUGCC, the self-cleavage amounted to 0.14.
The value for AGCAGAGAUCAACACAGCUUGGCAAAGUGGGUGUGGAUAGACUGCC was 0.02; that for AGAAGAACCCAACGCAACGUGGCAAUUUGGCUGUGGCUAGACUGCC was 0.88; that for AGCAGCGCCCAACACAGCGUGCCAAAGUCGCUGUGACUAGACUGCC was 0.07.
With AGCAGAGCUCAACACAGCGUGGCGAAGGGGCUGUGGCUAGACUGCC, the self-cleavage turned out to be 0.38.
The value for AGCAGAGCUCAGCACAGAGUGGCAAUGUGGCUGUGGCUAGACUGCC was 0.03; that for AGCAGAGCUCAACACGGCGUGGCAAAGUGGCUGUGGCUAGAGUGCC was 0.02.
The value for AGCAGAGCUCCUCACAGCGUUGCACAGUGGCUGUGGCAAGACUGGC was 0.01; that for AGUAGAGCUCAACACCGCGUGGCAUAGUGGCUGUGGCUAGACUGCC was 0.55; that for AGCAGCGCUCAACACACCGGGGCAAAGUGGCUGAGGCUAGACUGCC was 0.03.
The same measure for AGCAGAGCUAAACACAGCGCGGCAAAGUGGCUGUGGCUAGACUGCC: 0.04; for AGCAGAGCUCAGCACAGCGUGGCAGAGUGGCUGUGGCUAGAUUGCC: 0.02.
As to AGCAGAGCUAAACACCGCGUGGCAAAGUGGCUGUGGAUAGACUGCC, the self-cleavage was 0.05.
Take AGCAGAGCUCACAACAGCGUGGCAAAGUGGCUGUGGCUAGACUACC: the self-cleavage was 0.13.
The same measure for AGAAGAUCUCAACACAGCGUGGCAACGUCGCUGUGGCUAGACUGCC: 1.63.
The same measure for AGCAGAGCUCACCACAGCGUGGGAAAGUGGAUGUUGCUAGAUGGCC: 0; for AGCAGAGCUAAACACAGCGUGGGAAAGUGGCUGUGGCUAGACUGCC: 0.05.
The same measure for AGCAGAGCUCUACACAGCAUGGCAAAGUGGCUGUGGCUAGACUGCC: 0; for AGCAGAGCUCGACAUAGCGUGGCACAGAGGCUGUCGCUAGACUGCC: 0.04; for AGCAGAGCUCAACACGGCGUGGCAAAGUGGCCGGGGCUAGACUGCC: 0.06.
AGAAGAGCUCAACAAAGCGUGGCAAAGUGGCUGUGACUAGACUGCC: the self-cleavage amounted to 1.64.
The same measure for AGCAGAGCUCAACUCAGCGUGGCAAAGUGGCUGUGGCCAGACUGCC: 0.13; for AGCAGAGCUCAACUCAGCGUGGAAAAGUGGCUGUGGCUAGACUGCC: 1.2; for AGCAGAGCUCUACACAGCGUCGCAAAGUGGCUGUGGAUAAACUGCC: 0.01.
AGCAGAGCUCGACACAACGUGGCAAAGUGUCUGUGGCUAGACUGCC: the self-cleavage turned out to be 0.03.
On to AGCAGAGCUCUACACAGCGUGUCAAAGUGGCUGUGGCAAGACUGCC, for which the self-cleavage stood at 0.04.
The value for AGCAGGGCUCGACACAGCGCGGCAAAGUGGCUGUGGCUAGACUGCC was 0.03; that for AGCGAAGCACAACACAGCGUGGCACAGUGGCUGUGGCUAGACUGCC was 0.68.
Regarding AGCAGAGGUCAACACAGCGUGUGAAAGUGGCUGUGGCUAGACUGCA, the self-cleavage came to 0.14.
The value for AGCAGAGCUCCACACAGCGUGGCCAAGUGGCUGUGGCUAGAUUGCC was 0.02; that for AGCAGUGCUCAACACAGCGUGGCAAAGUGGCUGAGGCUAGAAUGCC was 0.04; that for AGGAGAGCUCACCACAGCGUGGCAAAGUGGCUGUUGCUCGACUGCC was 0.04.
The same measure for AGAAGAGCUCAACACAGCGUGGCAAAGUGGCUGUGGCUGGACCGGC: 1.16.
The value for AGUAGAGCUCAACACAGCGUGGCAAAGUGUCUGUGGCUAGACUGCC was 0.11; that for AGCAGAGGUCAACACAGCGUGGCAUAUUGGCUGAGGCUAGACUGCC was 0.07.
Take AGCAGAGCUCAACACAGCGUGGCAAUGUGGCUGUGGCUAGACUGUC: the self-cleavage was determined as 1.74.
The value for AGCAGAGCUCAACACGGCGUGGCAAAGGGGCUGUGGCUAGACUGCC was 0.11.
The same measure for AGCAGUGCUCGACACAGCGUGGCAAAGUGGCUGUGGGUAGAUUGCC: 0.
The value for AGCAGAGCUCAACACAGCGUGGCAAGGUGGCCUUGGCUAGACUGCC was 0.02; that for AGCGGAGCUUAACACAGCGUGGGAAAUUGCCUGUGAGUAGACUGCC was 0.07.
As to AGCAGAGCUCAUCAUAGCGUGGCAAAGUGGCUGUGGCUAGACUGCC, the self-cleavage came to 0.12.
Consider AGCAGAGCUCAACACAGCGUGGCUAGGUGGCUGUGGCUAGACUGCC, for which the self-cleavage stood at 0.44.
In the case of AGCAGAGCUCAACUCAGCGUGGCAAAGUGGCUGUGGCUGGACUGCC, the self-cleavage was found to be 0.34.
The value for AGGAGAGCUAAACACAGCGUGGCAAAGUGACUGUGGCUAGACCGCC was 0.05; that for AGCAGAGUUGAACACAGCGUGGCAAGGUGGCUGUAUCUAGACUGCC was 0.01.
The value for AGCAGAGUUGACCACAGCGUGGCAAAGUGGCUGUGGCUAGUCUGCC was 0.02; that for AGGAGAGGUCAAGACAGCGUGGCAAAGUGGGUGGGGAUAGAGUGCC was 0.29; that for AGCAGAGUUGAAGACAGCGUGGCAAAGUGCCUGUGGCUAGACUGCC was 0.1.
The value for AGCAGCGCACAAAACUGCGUGGGAAAGUGCCUGUGGCUAGACUGCC was 0.05; that for AGCAGCGCUCAACACAGCGUGGCAAAGUGGCUGUGGCUAAACUGCC was 0.12; that for AGCAGAGGUCAACACAGCAUGGCAGAGUGGCCGUGGCUAGACUGCC was 0.18.
For AGCCGAGCUCAACACAGCGUUGCAAAGUGGCUGUGGCUAUACUGCC, the self-cleavage was found to be 0.18.
The value for AGCAGAGCUCAACACAGCGUGGCAUAGUGGCUGUGGCUAGUCGGCC was 0.05.
The same measure for AGAAGAGCUCAACACAGCGUGGCAAAGUGGCUGUGGCUAAACUGCC: 0.9; for AGCAGAGCUCAUCACACCGUGGCAAAGUGGCUGUGGCUAGACUGCG: 0.6; for AGCAGCGCUCAAAACAGCGUGGCAAAGUGGCUGUGGUUAGAAUGCC: 0.04.
The same measure for AGCAGAGCUCAGCACAGCGUGGUAACGUGGCUGUGGCUAGACUGCC: 0.01; for AGGAGAGCUAAUCACAGCGUGGCAAAGUGGCUGUGGCUAGACUGCC: 0.04.
Turning to AGCAGAGCUAAACACAGCGUGACAAAGUGGCUGUGGCUAGACUGCC, the self-cleavage turned out to be 0.04.
The same measure for AGCCGAGCUCAACACAGCGUGGCAAAGUGGCUGUCGGUAGACUGCG: 0.12.
The same measure for AGGAGAGCUCAACACAGCGUGGCAUAGUGGCUGUGGCUAUACUGCC: 0.17.
For AGCAGAGCUCAACGCAGCGUGGCCAAGUGGCUGUGGCUAGACUGCC, the self-cleavage was 0.1.
The value for AGCAGAGAUCAACACAGCGUGGCAAAGUGGCUGUGGCUAUACUGCC was 0.14; that for AGCAGAGCUCAACACCGCGUGGCAAAGUGGAUGUAGCUAGACUACC was 0.02; that for AGCAGAGAUCACCACAGCGUGGCAAAGUGGCGGUGGCUAUACUGCC was 0.14.
The same measure for AGAAGAGCUCAACACAGCGUGGUAAAGUGGCUGUGGCUAGACUGCA: 2.84; for AGCAGAGCUCCACACAGGGUCGCAAAGUGGUUAUGGCUAGAUUGCC: 0.13.
The same measure for AGCGAAUCUCAACACAGUGUGGCAAAGAGGGUGUGGCUAGACUGCC: 0.17; for AGCAGAGCUAAACACCGCGUGAUAAAGUGGUUGUGGCUAGACUGCC: 0.03.
As to AGGAGAGCGCAACACAGCGUGGCACAGUGGCUGUGGCUAGACUGCC, the self-cleavage was 0.06.
As to AGAAGAGCUACCCACAGCGUGGCAAAGUAGCUGUGGCUAGAAUGCC, the self-cleavage was determined as 0.04.
The same measure for AGGAGAGCUCAACACUGCGUGGCCAAGUAGCUGUGGCUAGACUGCC: 0.21; for AGCAGAGCUAGACCCAGCGUGGCAAAGUGACUGUGGCUAGACUACC: 0.05.
The value for AGCAGAGUUCAAAACAGCGUGGCAAAGUGGUUCUGGCUAGACUGCC was 0.92; that for AGCAGCGCUCUACACAGCGUGGCAAAGUGGCUGUGCCUAGACUGCC was 0.21.
The same measure for AGCAGAGCUCAACCCAGCGUGGUAAUGUGGCUGUGGCUAGACUGCC: 0.33.
As for AGCUGAGCUCAACACAGCGUGGCAAAGUGGCUGUUGCUACACUGCC, the self-cleavage is 0.08.
With AGCAGAGUUCAACACAGUGGGGCUAAGUGGCUGUGGCUAGAGUGCC, the self-cleavage is 0.25.
The value for AGUAGAGCUCAACACAGCGUGGCAAAGUGGCUGUGGCUAGAUUGCC was 0.14; that for AGUAGAGCUCAACACAGCGUGGCAAAGUGGCAGUGGCUAGACUGCC was 0.34; that for AGCGGAGCUCAACACAGCAUGGCAAAGUAGAUGUGGCUAGACUGCC was 0.05.
The value for AGCAGAGCUCAACCCAGCGUGGCAAAGUGUCUGUGGCUAGACUGCG was 0.05; that for AGCAGAGCUCAACACCGCGUGGCCAAUUGGUUGUGGCUAGACUGCC was 0.02.
The value for AGCAGUGCUCAACACAGCGUGGCAAAGUGGCUGUUGCUAAACUGCC was 0.15; that for AGAAGAGCUCAACGCAGCGUGGCAAAGUGGCUGUGGCUAGUCUGCC was 0.36; that for AGCAGAGCUCGACAUAGCGUGGCAAAGUGGGUGUGGCUAGACUACC was 0.03.
For AGAAGAGCUCAACACAGCGUGGCACAGUGGCUGUGGCUAGACUGCC, the self-cleavage was found to be 2.54.
With AGCUGAGCUCAACACAGCGUGCCAAAGUGGCUGUGGCUAGACUGCC, the self-cleavage was determined as 0.06.
Regarding AGCAGAGCUAAACACAGCGUGGCACAGUGGCUGUGGCUAGACUGCC, the self-cleavage was 0.1.
The value for AGCAGCGCUCAACACAGCGUUGCAAAGUGGCUGCGGCUAGACUGCC was 0.07.
Consider AGCAGUGCUCAACGCAUCGUGGCAAAGUGGCGGUGGGUAGACUGCC, for which the self-cleavage was determined as 0.04.
The same measure for AGCAGAGCUCAACUCAGCGUGGCAUAGUGGCUGUGGCUAGACUGCC: 0.04; for AGCAGCGCUCAACACAGUGUGGCAAAGUGGCUGUGGCUAGACUACC: 0.07; for AGUACAGCUCAACACAGCUUGGCAAAGUGGCUGUAGCUGGACUGCC: 0.25.
The same measure for AGCAGAGCUCAACACGGCGUGGCAAAGUGGCGGUGGUUAGUCUGCC: 0.02; for AGCGGAGCUCAAUACAGCGUGGCAAAGUGGCUGUGGCUACACUGCC: 0.03; for AGCAGAGCUCAACACUGCGUGGCAAAGUGGCUGUGGUUAGACUGCC: 0.04.
The value for AGCUGAGCUCAACACAGCGUGGCAAAGUGGCUGUGGCUAGACUGAC was 0.15; that for AGCUGAGCUCAACACAGCGUGGCGAAGUGGCUGUGGCUAGACUGCC was 0.16.
Turning to AGCAGAGCUCAACUCAGCGUGGCUACGUGGCUAUGGCUAGACUGCC, the self-cleavage stood at 0.05.
The same measure for AGCAGGGCUCAACACAGCGUGGCAAAGUGGCUGUCGCCAGACUGCC: 0.02.
The value for AGCAGAGCUCAUCACAGCGUGGCAAGGUGGCUGCGGCUAGACUGCC was 0.01; that for AGCAGAGCUAAACACAGCGAGGCAAAGUGAAUGUGCCUAGACUGCA was 0.04; that for AGCUGAGCUCAACACAGCGUGGCAAAGUGGCUGCGGCUAUACUGCC was 0.12.
